In PMC6919601, “Identification of Plasmodium dipeptidyl aminopeptidase allosteric inhibitors by high throughput screening” (PLoS ONE, 2019):
The whole screen tested about 110,000 compounds, of which about 230 (0.21%) showed an effect of 50% or more. This is one part of the list.

Biological target: DPAP1 (Plasmodium falciparum, UniProt Q8IIJ9)
Assay: primary screen, percent inhibition; read by cleavage of a fluorogenic dipeptide substrate; higher = more effect of the substance
Design: species or system P. falciparum D10 trophozoite lysates; single well
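Note: 30 min substrate incubation versus DMSO and 10 µM JCP410 controls.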

Sequence of DPAP1 (Q8IIJ9 whole entry, looked up): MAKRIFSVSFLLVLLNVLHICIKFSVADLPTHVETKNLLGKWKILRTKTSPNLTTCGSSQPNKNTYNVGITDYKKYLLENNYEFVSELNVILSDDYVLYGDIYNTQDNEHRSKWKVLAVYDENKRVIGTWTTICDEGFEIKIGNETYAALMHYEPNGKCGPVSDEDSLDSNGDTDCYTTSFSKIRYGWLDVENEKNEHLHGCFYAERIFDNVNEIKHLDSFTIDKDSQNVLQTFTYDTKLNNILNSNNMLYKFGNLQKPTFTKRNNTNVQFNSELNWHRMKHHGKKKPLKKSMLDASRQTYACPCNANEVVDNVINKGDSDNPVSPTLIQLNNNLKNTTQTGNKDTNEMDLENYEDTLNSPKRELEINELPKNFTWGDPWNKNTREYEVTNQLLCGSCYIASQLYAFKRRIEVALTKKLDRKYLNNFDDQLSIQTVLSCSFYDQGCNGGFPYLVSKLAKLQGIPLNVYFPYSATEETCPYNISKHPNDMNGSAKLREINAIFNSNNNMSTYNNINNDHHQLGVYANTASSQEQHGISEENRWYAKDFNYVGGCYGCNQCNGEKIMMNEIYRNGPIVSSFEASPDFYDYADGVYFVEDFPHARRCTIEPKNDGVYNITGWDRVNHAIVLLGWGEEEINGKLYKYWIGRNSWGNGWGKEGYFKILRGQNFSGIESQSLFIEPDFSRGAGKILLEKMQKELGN

Going from `NC(=O)C1CCN(C2C3CC4CC(C3)CC2C4)CC1` (stereo not drawn) to `NC(=O)C1CCN(c2c3c(nc4nncn24)CCC3)CC1`, the “% Inhibition @ 10 uM” value rises from 0.472% to 0.895%.

Going from `N#CC1=C(N)Oc2cc(O)ccc2C1c1ccc(F)cc1` (stereo not drawn) to `Cc1[nH]nc2c1C(c1c(OCc3ccccc3)ccc3ccccc13)C(C#N)=C(N)O2` (stereo not drawn), the “% Inhibition @ 10 uM” value rises from -2.51% to -0.413%.

Going from `Cc1sc2ncn(CC(=O)NCCCC(=O)NCc3ccc(F)cc3)c(=O)c2c1C` to `Cc1coc2cc3oc(=O)c(CCC(=O)NCc4ccccc4)c(C)c3cc12`, the “% Inhibition @ 10 uM” value falls from 5.88% to 4.13%.

Going from `CC(NC(=S)c1cccnc1)c1ccccc1` (stereo not drawn) to `O=C(NCc1cccnc1)c1ccccc1O`, the “% Inhibition @ 10 uM” value rises from -1.93% to 5.38%.

Going from `COc1ccc(NC(=O)c2ccc(Cl)c(Cl)c2)c(OC)c1` to `COc1ccc(NC(=O)CN(c2cc(Cl)cc(Cl)c2)S(C)(=O)=O)cc1OC`, the “% Inhibition @ 10 uM” value rises from -6.74% to 7.34%.

Compared with `COc1ccc(CCNS(=O)(=O)c2cccs2)cc1`, `Cc1cccc(NC(=O)Cc2ccccc2Cl)n1` is higher in “% Inhibition @ 10 uM” value: -4.79% for the first, 1.18% for the second.

First: Cc1ccccc1Cn1c(NCC2CCCO2)nc2c1c(=O)n(C)c(=O)n2C (stereo not drawn)
Second: O=C(NCC1CCCO1)c1cc(-c2cccnc2)nc2ccccc12 (stereo not drawn)
The “% Inhibition @ 10 uM” value of the first is higher: 18.4% for the first, -4.06% for the second.

Going from `CCc1ccccc1NC(=O)/C=C/c1ccc(C(C)C)cc1` to `CC(C)c1ccc(C2C(C(=O)c3cc4ccccc4o3)=C(O)C(=O)N2CCCn2ccnc2)cc1` (stereo not drawn), the “% Inhibition @ 10 uM” value falls from 1.48% to -6.68%.

Going from `CCC(C)N(CCNc1ncnc2onc(C)c12)Cc1ccco1` (stereo not drawn) to `Cc1ccc(N2C(=O)CC(NCc3ccco3)C2=O)cc1` (stereo not drawn), the “% Inhibition @ 10 uM” value falls from 10.3% to 0.161%.

Going from `COc1ccc(-c2cc(=O)oc3c(C)c4c(cc23)CN(Cc2ccco2)CO4)cc1` to `COc1ccc(-c2cc(-c3ccccc3)nc(SC(C(N)=O)c3ccccc3)c2C#N)cc1` (stereo not drawn), the “% Inhibition @ 10 uM” value rises from -0.808% to 3.01%.

First: COc1cc(C2(c3ccc(N)c(OC)c3)CCCCC2)ccc1N
Second: COc1ccccc1C1(c2c(OC)c(=O)c2=O)SCCCS1
The “% Inhibition @ 10 uM” value of the first is lower: -2.02% for the first, 0.746% for the second.

First: Cc1sc(NC(=O)C2C3CCC(C3)C2C(=O)O)c(C(N)=O)c1-c1ccc(C(C)(C)C)cc1 (stereo not drawn)
Second: Cc1cccc(NC(=O)C2CCN(S(=O)(=O)c3cccc4nsnc34)CC2)n1
The “% Inhibition @ 10 uM” value of the first is higher: 18.4% for the first, -5.22% for the second.

Compared with `CCN(CC)C(=O)Cn1cc(S(=O)(=O)Cc2cc(C)ccc2C)c2ccccc21`, `Cc1ccc(-c2c(C(=O)O)n(C)c(=O)c3ccccc23)cc1C` is lower in “% Inhibition @ 10 uM” value: 0.292% for the first, -7.91% for the second.

Going from `CN1C(=O)C(O)(CC(=O)c2ccco2)c2cc(Br)ccc21` (stereo not drawn) to `CCNC(=O)C1c2ccccc2C(=O)N(C)C1c1cccs1` (stereo not drawn), the “% Inhibition @ 10 uM” value falls from 0.583% to -6.05%.

Compared with `Cc1cccc(Oc2ccc(NC(=O)c3ccccc3C(=O)O)cc2)c1`, `O=C(COc1ccccc1Cl)Nc1ccccc1C(=O)Nc1ccccc1` is higher in “% Inhibition @ 10 uM” value: -8.92% for the first, -1.04% for the second.

Compared with `COc1cc(CNCc2c(C(=O)O)n(Cc3ccc(Cl)cc3)c3ccccc23)cc(OC)c1OC`, `Clc1ccc(-c2nn3c(Cn4cnc5ccccc54)nnc3s2)cc1` is higher in “% Inhibition @ 10 uM” value: 3.61% for the first, 48% for the second.

Compared with `Cc1nc2nc(NC(=O)C(C)C)nn2c(C)c1Cl`, `CCCCCCn1c(SCC(C)C)nc2c1c(=O)[nH]c(=O)n2C` is higher in “% Inhibition @ 10 uM” value: -1.53% for the first, 2.46% for the second.

First: CC(=O)N1c2ccccc2N=C2CC(C)(C)CC(O)=C2C1c1cccc(Cl)c1 (stereo not drawn)
Second: COc1ccc(C2CC3=Nc4ccccc4NC(c4cccc(O)c4)C3=C(O)C2)cc1 (stereo not drawn)
The “% Inhibition @ 10 uM” value of the first is lower: -5.79% for the first, -0.988% for the second.

First: N#Cc1c(-c2ccccc2)cc(-c2ccccc2)nc1N1CCCCC1
Second: CCc1nc(N2CCCCC2)c(C#N)c2c1COC(C)(C)C2
The “% Inhibition @ 10 uM” value of the first is lower: -5.65% for the first, 3.76% for the second.

Going from `CC(C)NC(=O)C(=O)NCc1ccncc1` to `c1cc(CCSC2CCCCC2)ccn1`, the “% Inhibition @ 10 uM” value rises from -0.0829% to 0.00178%.

Compared with `O=C(Nc1ccc(Cl)cc1)Nc1cc([N+](=O)[O-])ccc1F`, `O=[N+]([O-])c1ccc(N2CCN(Cc3ccc(O)cc3)CC2)cc1` is higher in “% Inhibition @ 10 uM” value: 0.0792% for the first, 3.25% for the second.

Compared with `O=C1N=C(N2CCCCCC2)S/C1=C/c1ccc(Cl)cc1`, `CCOCCCNC(=O)c1nc(-c2cccc(F)c2)n2c1CCCCC2` is lower in “% Inhibition @ 10 uM” value: -1.65% for the first, -3.88% for the second.

Going from `Cc1ccc(Cn2c(=O)c(C#N)cc3c(=O)n4cccc(C)c4nc32)cc1` to `COc1cccc(/C=C2N=C(/C=C/c3ccc(C)cc3)OC\2=O)c1`, the “% Inhibition @ 10 uM” value rises from -5.92% to 8.65%.

Compared with `COc1cc(C)c(CN2CCC(Cc3ccccc3)CC2)cc1C`, `Cc1cc2oc3c(c(=O)c2cc1C)C(c1ccc(C(C)C)cc1)N(CCCN1CCOCC1)C3=O` (stereo not drawn) is higher in “% Inhibition @ 10 uM” value: -5.57% for the first, -4.78% for the second.

Compared with `Cc1cccc(C(=O)Nc2cccc(C(N)=O)c2)c1`, `O=S(=O)(Cc1ccccc1)Nc1cccc(C(F)(F)F)c1` is higher in “% Inhibition @ 10 uM” value: -7.93% for the first, 3.44% for the second.

First: N#CCSc1nc2ccccc2s1
Second: COc1c(Cl)cc(Cl)cc1/C=C(\C#N)c1nc2ccccc2[nH]1
The “% Inhibition @ 10 uM” value of the first is higher: 15.8% for the first, 7.1% for the second.

Compared with `CCOC(=O)C1=C(C)N=c2s/c(=C/c3ccc(C(=O)OC)cc3)c(=O)n2C1c1cccs1` (stereo not drawn), `CCOC(=O)c1c(-c2ccccc2)csc1/N=C/C1C(=O)CCCC1=O` is higher in “% Inhibition @ 10 uM” value: -0.178% for the first, 3.72% for the second.

First: O=C(CC(c1ccccc1)c1ccccc1)Nc1ccc2c(c1)OCCO2
Second: COc1cc(S(=O)(=O)Nc2ccccc2C)ccc1/N=C/c1c(C)nn(-c2ccccc2)c1O
The “% Inhibition @ 10 uM” value of the first is lower: -5.14% for the first, -0.305% for the second.

Going from `CC1=C(C(=O)OCCOC(C)C)C(c2cc3c(cc2Br)OCO3)CC(=O)N1` (stereo not drawn) to `CC1(C)CC(=O)C2=C(C1)OC1=C(C(=O)CC(C)(C)C1)C2c1ccc(O)cc1O`, the “% Inhibition @ 10 uM” value falls from 2.54% to -1.28%.

Compared with `CCOc1ccc(C(CC(=O)O)NC(=O)CCCOc2ccc(Cl)cc2C)cc1` (stereo not drawn), `Cc1cc(/C=C2/NC(=O)NC2=O)c(C)n1-c1ccc(C(C)C)cc1` is lower in “% Inhibition @ 10 uM” value: 4.32% for the first, 0.487% for the second.

Going from `O=C(NC1CCCCC1)c1ccc(C(=O)N(C2CCCCC2)C2CCCCC2)cc1` to `C=CCOc1c(Cl)cc(CNC2CCCC2)cc1OC`, the “% Inhibition @ 10 uM” value rises from -2% to -1.38%.

With `CC(C)(C)OC(=O)N1CCC2(CC1)N=C(c1ccccc1)C(=S)N2` the “% Inhibition @ 10 uM” value was -2.41%.
